This is an account of results in PMC12136788.

First the molecules themselves.
B1: chr5:10263280:10263281:+_ENSG00000150753_ENST00000503026|hu_hu|FALSE|FALSE (ssRNA)
RNA: GGGAGUUCUACAGUCCGACGAUCGAGGGCCAUGGGGAUGACCUCCAGUGCGUCGGCAAACGCUCUCAUGGCAUACUGUUCUAAGGUGGGGCACUUAUCCGCCUCUUGGCUAACUGCCAGGGCACAGGAUAUCUCAGCAGCCCCCAACAGAGGAUUGAGCAUCA
B2: chr6:86246577:86246578:-_ENSG00000135317_ENST00000369627|hu_mus|FALSE|FALSE (ssRNA)
RNA: GGGAGUUCUACAGUCCGACGAUCUAAUUAGGCAGCACAGCUCCCUCCAUUGUCGUACUCUUGAAUACGCCUUUAAUUUUGCUACCUAUUCUGCUGAUUCCAAACGAUUCUCCUCUUUUUUGUGUGCUUCUAAAUAUUAAACAACAACAGAGGAUUGAGCAUCA
B3: chr7:7679991:7679992:-_ENSG00000106399_ENST00000396682|hu_hu|hu_hu_hu_mus_False|38_78 (ssRNA)
RNA: GGGAGUUCUACAGUCCGACGAUCUGGGAUGAAUCUUUUCCAGCUUCCCCACGAAGCAGACAGGCUUGUCGAUAUACUGUGGUAACAUGCUGGCGUUGAUGCGCGACUUGGGGAGCUGCAUUAUGUCCUCCAUGAUUCUGCCGCCAACAGAGGAUUGAGCAUCA
B4: chr9:59476459:59476460:+_ENSMUSG00000025237_ENSMUST00000026267|mus_mus|FALSE|FALSE (ssRNA)
RNA: GGGAGUUCUACAGUCCGACGAUCUUUCAGCAUAGAGUCCUGUAUGAUAGGAAAACUGGGAGACUUGGGAAUGGGUGAGAAGAUGCUGAGGCCAGCUCGGAACUUCUUGAUGGUACCACUUGCCUUGAACCAACUGUGCCUCUUCAACAGAGGAUUGAGCAUCA
B5: chr7:106468345:106468346:+_ENSMUSG00000055407_ENSMUST00000127492|mus_hu|FALSE|FALSE (ssRNA)
RNA: GGGAGUUCUACAGUCCGACGAUCCCCAAACACUGCUUGUGGAACCAAAAUCAGUUUCAUUCAGUACGUUUGGGAUAUAGAAUGAGACUGGCUGAGUUUUAUUUGUAAACAGUAGAAAUCAAAGGAAGUCUCUUGCCAGUAAAGCAACAGAGGAUUGAGCAUCA
B6: chr10:1038518:1038519:+_ENSG00000107937_ENST00000545048|hu_hu|hu_hu_hu_mus_False|58_68 (ssRNA)
RNA: GGGAGUUCUACAGUCCGACGAUCCAGUCUGUCAUGGUAAUUCUGUUGAGUAAAUUUGACUUUUCUCAUGUAAAAAUGUCUAAUGCGAUGAAUUUGAUAAUGUUUAUGAAUAACCGUUGGAGUCUUUCGUUGAGUCUUGGAUAACAACAGAGGAUUGAGCAUCA
B7: chrX:71549400:71549401:+_ENSMUSG00000019087_ENSMUST00000019231|mus_hu|mus_mus_mus_hu_False|78_108 (ssRNA)
RNA: GGGAGUUCUACAGUCCGACGAUCGCAAGGAAGAGGAGGAAGCUCUUCAGUCCAGUGGUCACAAAACUGGGAAAGCAACAACACGGACACCGUCCCACCCUCAACCCCCCCACUGGCACAGGGUCACACAAUCUGGGUCAAAGACAACAGAGGAUUGAGCAUCA
B8: chr12:28025581:28025582:-_ENSMUSG00000063632_ENSMUST00000079063|mus_mus|FALSE|FALSE (ssRNA)
RNA: GGGAGUUCUACAGUCCGACGAUCUUUUUAAAUCUCUUAAGAAAAAAAAAUCAACUCCCUAGAGUAACAGUUGUGCCGUCUAAAGGGUCCUCUGCCGAUGUCUUUCAGACUUCAAAGAGCCACAAGCUUCAAACAGCGCCUUCCCAACAGAGGAUUGAGCAUCA
B9: chr7:140404665:140404666:+_ENSG00000090266_ENST00000247866|hu_hu|hu_hu_hu_mus_False|28_108 (ssRNA)
RNA: GGGAGUUCUACAGUCCGACGAUCUGCGUACAGAGUGCCAGAGAGUUUACAGUGUCAGUCCUCGUCAUCAGGAGGGAUUCCCAGUUCUUCAUCUGUCCACUGUGAAGGAUCAGGAUAUGAAAAGUGACCCAGCACAGCAUCCGACAACAGAGGAUUGAGCAUCA
B10: chr2:31148120:31148121:+_ENSMUSG00000062661_ENSMUST00000000199|mus_mus|FALSE|FALSE (ssRNA)
RNA: GGGAGUUCUACAGUCCGACGAUCCAGUAUCCUUUAGAACAGAAGGUAGUUUGUUUUCUUUUACAAUGUCCGUUUGAAAUAAAAAAAGAAAGCACACAGGCCGGACAGCAGGAAGAAUGGGGUGGCUGCCGAGGGAGACAGCCGCAACAGAGGAUUGAGCAUCA
B11: chr7:63240916:63240917:-_ENSMUSG00000047037_ENSMUST00000052204|mus_mus|FALSE|FALSE (ssRNA)
RNA: GGGAGUUCUACAGUCCGACGAUCUAGCAGACAGCCCAACUUGCCCAAGAUGUUGAGCUUUUCCUUCAGAAGGUAAGAAGCUAAAAUGGACCCAAACGGUACUCCAAGGGCACCUAAGGGAGUCACCAGGACUGUAGGGACCGCCAACAGAGGAUUGAGCAUCA
B12: chr7:31307748:31307749:-_ENSMUSG00000036882_ENSMUST00000044338|mus_mus|motif|central (ssRNA)
RNA: GGGAGUUCUACAGUCCGACGAUCUCUGUACAAGGAUCCUCGGACCUCCCCUCCCCUCCCAUAGGAUGGUGGAGCUGGCCGGUAGAGCAGAAAAGGUUCGGGGGAACCCCAAGGUCCAGGCACCCGAUGGGGAGUAUGUGGACCCAACAGAGGAUUGAGCAUCA
B13: chr7:138713503:138713504:-_ENSG00000146858_ENST00000275766|hu_mus|FALSE|FALSE (ssRNA)
RNA: GGGAGUUCUACAGUCCGACGAUCUUUCUCUUCAAGCAUCUUGUGCAACUUCUUAUGUCUGUAGACAGAGAUUAUCUGGAAAUUCACGACGCUUGAAACACUAAGUUCUUGGUCCUCUAGCAACUUGAGGGUGGCAGCAUGGAUCAACAGAGGAUUGAGCAUCA
B14: chr18:61067831:61067832:-_ENSG00000119541_ENST00000238497|hu_hu|motif|central (ssRNA)
RNA: GGGAGUUCUACAGUCCGACGAUCAGAAACAAGAUCAGAGGAAGAUAUUGAAAAAAAUGUUGAGUUGUUGGCUUCUGUUGCGGCAGCUUUGGCUAAGUAGGACUUUCCUGUUCCAGGCGGCCCAAAUAAUAGGAUUCCCCUCCACAACAGAGGAUUGAGCAUCA

Some of the results follow.

The test addresses T1, UNK ZnF1-3 (human, UniProt Q9C0B0 31-174).
T1 sequence: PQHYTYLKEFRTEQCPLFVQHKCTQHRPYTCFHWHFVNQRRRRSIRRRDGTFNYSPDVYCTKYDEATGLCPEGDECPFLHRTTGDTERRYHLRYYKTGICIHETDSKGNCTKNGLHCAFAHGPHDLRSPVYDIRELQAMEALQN
As to the kind of experiment: nsRBNS (natural sequence RNA bind-n-seq); RBNS binding buffer (assumed for nsRBNS): 25 mM Tris pH 7.5, 150 mM KCl, 3 mM MgCl2, 0.01% Triton X-100, 500 ug/ml BSA, 20 U/ml SUPERase-In, 4 C; UNK is unkempt and MSI1 is Musashi-1; names of the RNAs are library labels; protein concentration not given here; high values mean tight binding.
For B1, the binding signal was determined as 0.947 enrichment R. For B2, the binding signal came to 0.988 enrichment R. The same measure for B3: 0.54 enrichment R. The same measure for B4: 0.995 enrichment R. The same measure for B5: 0.853 enrichment R. Turning to B6, the binding signal is 0.778 enrichment R. In the case of B7 it was 1.74 enrichment R; in that of B8, 0.808 enrichment R; in that of B9, 1.01 enrichment R. In the case of B10 it was 1.71 enrichment R; in that of B11, 0.997 enrichment R. In the case of B12 it was 0.843 enrichment R; in that of B13, 0.819 enrichment R. Regarding B14, the binding signal is 2.63 enrichment R.
